According to the BET-seq Pho4 binding data (Le et al. 2018):
This is one part of the list. The energies were worked out here from pooled read counts, against the library average; single values are noisy.

Biological target: T1, Pho4 (S. cerevisiae) (UniProt P07270)
T1 sequence: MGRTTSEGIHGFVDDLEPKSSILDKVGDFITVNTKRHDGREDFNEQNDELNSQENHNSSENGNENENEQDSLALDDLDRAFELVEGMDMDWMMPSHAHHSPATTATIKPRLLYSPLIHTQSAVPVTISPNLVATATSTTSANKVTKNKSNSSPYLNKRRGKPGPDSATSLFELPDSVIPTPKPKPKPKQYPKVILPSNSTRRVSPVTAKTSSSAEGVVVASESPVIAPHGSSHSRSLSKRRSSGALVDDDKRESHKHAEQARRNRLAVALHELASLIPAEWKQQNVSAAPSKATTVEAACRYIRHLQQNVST
Assay: relative binding free energy (BET-seq); higher = weaker binding
Settings: reference: library average

Relative binding free energy, 0.05 kcal/mol:
GATAACACGTGTGGGA
GTGTGCACGTGTACAT
GGCGGCACGTGATTTT
AGTTCCACGTGTTGTC
GGTCGCACGTGGATTA
GGCTCCACGTGCGGGT
TCGTGCACGTGTTGCG
TGTTGCACGTGGAACG

Relative binding free energy, 0.2 kcal/mol:
TTTGACACGTGAATGG
CATGGCACGTGTGGCA
CTGTTCACGTGGTAGG
AAAATCACGTGGCGGT
AGGATCACGTGTGTAT
TGGGTCACGTGAGTGA

Relative binding free energy, 0.11 kcal/mol:
GAGGCCACGTGTGGTC
AGTATCACGTGTAAGT
GTGAACACGTGTCGGT
AATTACACGTGCATGG

Relative binding free energy, -0.29 kcal/mol:
GACAGCACGTGGGTGT
TATGGCACGTGGGTAG

Relative binding free energy, 0.14 kcal/mol:
ACGCTCACGTGGGGGC
TGGATCACGTGTATGA
TATGTCACGTGCAGCG
CTGTTCACGTGTGATT
TGTTGCACGTGTGGGT

Relative binding free energy, 0 kcal/mol:
ACGGTCACGTGGTGTG
GTGGGCACGTGGTAAG
TAGGGCACGTGTGGAT

Relative binding free energy, -0.07 kcal/mol:
GTTAACACGTGCGTTA
AGAAGCACGTGGAAGG
CTGGCCACGTGGTGAT

Relative binding free energy, 0.31 kcal/mol:
TTATTCACGTGATGTA
TGATTCACGTGACGGT

Relative binding free energy, 0.22 kcal/mol:
GAGTGCACGTGAGGCA
ATATTCACGTGTTGGA
GGTATCACGTGGAAGG

Relative binding free energy, -0.11 kcal/mol:
ATAGCCACGTGTTAGT
TCTGGCACGTGTGCAT
GGGGCCACGTGGGCTT

Relative binding free energy, 0.23 kcal/mol:
TGAGTCACGTGTATAG
GTTAACACGTGGAATT
TGTTGCACGTGAGTTC

Relative binding free energy, 0.41 kcal/mol:
GCTTTCACGTGATTTA
GGGCTCACGTGATTTA

Relative binding free energy, 0.25 kcal/mol:
TGTCACACGTGTCGGA
TGATTCACGTGTGAAG

Relative binding free energy, -0.14 kcal/mol:
AGTTGCACGTGGCAGT
TGTAGCACGTGGGTGG
GATAGCACGTGGGGCG
GGATGCACGTGGGTCT

Relative binding free energy, -0.27 kcal/mol:
CGGGGCACGTGCATGG

Relative binding free energy, -0.16 kcal/mol:
GGTAGCACGTGGGAGG
TGGTGCACGTGGTCGG
TTGAGCACGTGTTGCA
ACGGGCACGTGCCGGG
GTAGGCACGTGGTCGC

Relative binding free energy, 0.04 kcal/mol:
TTCGACACGTGGTAGT
TGTTACACGTGGCGTT
TGCATCACGTGTAGGG
ATGGACACGTGTTGTG
GGTGGCACGTGGACTG
CTGGTCACGTGGGTGC

Relative binding free energy, -0.06 kcal/mol:
TTATGCACGTGGCTAG
GTCGGCACGTGGTTGG
ATGAACACGTGGGTAT
GTTTGCACGTGGGGGA

Relative binding free energy, 0.1 kcal/mol:
TACTTCACGTGGTATG
GTTTACACGTGGTACA
ATAGACACGTGGGAGA

Relative binding free energy, 0.13 kcal/mol:
TTCGTCACGTGTGGTA
TATTACACGTGCTTGA
TTCAACACGTGCGTTG

Relative binding free energy, 0.28 kcal/mol:
TAGATCACGTGAGGTA
TAGATCACGTGATGTT

Relative binding free energy, -0.15 kcal/mol:
TTAGGCACGTGGTCGG

Relative binding free energy, 0.21 kcal/mol:
TCGTTCACGTGGTGAA
GTTAGCACGTGACTTT
AGTTTCACGTGCATGT

Relative binding free energy, 0.18 kcal/mol:
GGTCGCACGTGATGTG
CATGTCACGTGTGATA
GGAGCCACGTGAGGGG
TTATGCACGTGATTGG
CGGACCACGTGATGGG
TAGATCACGTGTATGG
TGGCTCACGTGGCGAG
TATTACACGTGGCCGG

Relative binding free energy, 0.26 kcal/mol:
TTGGACACGTGTCGGA
TATGTCACGTGACGGG
GGAGCCACGTGAGCGG

Relative binding free energy, 0.34 kcal/mol:
AGTTGCACGTGAAATT

Relative binding free energy, 0.35 kcal/mol:
AGTTTCACGTGGCGTT

Relative binding free energy, 0.4 kcal/mol:
TTGGTCACGTGAAAGG

Relative binding free energy, 0.02 kcal/mol:
TTACGCACGTGGTTTT
GTCAACACGTGTAGGG

Relative binding free energy, -0.18 kcal/mol:
TTTAACACGTGGGTGT
GTATGCACGTGGCGGG
AAGGGCACGTGGGCGG
GGATGCACGTGCTTTG

Relative binding free energy, -0.21 kcal/mol:
ATTAGCACGTGGGATA
TGGAGCACGTGGTGCG
TACGGCACGTGCTGTT

Relative binding free energy, -0.05 kcal/mol:
TTGGGCACGTGCTTGC
AGGGGCACGTGTGAAG
TTTCGCACGTGGATAG
TTTAACACGTGTGTGA
GCTGCCACGTGGGTTG
ATAAGCACGTGTAGGA

Relative binding free energy, 0.12 kcal/mol:
AGTGACACGTGATGTG
GTGTTCACGTGGACAT
AAGGACACGTGTATTT
TAGGTCACGTGGTGAT

Relative binding free energy, -0.24 kcal/mol:
TGCACCACGTGGGGGG

Relative binding free energy, -0.17 kcal/mol:
TTTGCCACGTGGTGGG
TGCGTCACGTGGTGCG

Relative binding free energy, -0.3 kcal/mol:
ATAAGCACGTGGGTGA

Relative binding free energy, -0.08 kcal/mol:
GAGGGCACGTGTTGCT
TACTGCACGTGATGGT

Relative binding free energy, -0.2 kcal/mol:
TTTGCCACGTGGGGAC
AATGACACGTGGTGTA
TGTGGCACGTGCGTCG
GTGCGCACGTGGGTAA

Relative binding free energy, -0.23 kcal/mol:
TGGCGCACGTGGGCCG

Relative binding free energy, -0.12 kcal/mol:
CCAGGCACGTGTAGGG
TATCGCACGTGTTAGG
TGAGGCACGTGATAGT
CTAGGCACGTGCGGCG

Relative binding free energy, 0.27 kcal/mol:
TGGTTCACGTGCAAGG

Relative binding free energy, -0.01 kcal/mol:
TGCATCACGTGGCGGT
GAGTACACGTGGTGAT
GATGCCACGTGGTTTT
GAAAACACGTGGGGTA
TATGTCACGTGGCGTT
TAATGCACGTGCGGTT
ATCGGCACGTGTTTTA

Relative binding free energy, -0.02 kcal/mol:
TTTAGCACGTGCGGAG
AGCTGCACGTGGTGGC
TAGAGCACGTGTCTGG
GAGTGCACGTGTCTGT
TCGGGCACGTGTTGAA
TGTTGCACGTGGAGGG
TTTATCACGTGGGGGA

Relative binding free energy, -0.09 kcal/mol:
GCGGACACGTGGGGGA
TAGCGCACGTGTATTG
TATGTCACGTGGGACG
GGTCGCACGTGGGTTC
CGAGGCACGTGTGGTA
TGTGTCACGTGGCCGG
TGTAGCACGTGCAGAT
GCGAGCACGTGGTGAG
AATTGCACGTGGTATT

Relative binding free energy, -0.13 kcal/mol:
GGGGCCACGTGGGCTA
GGGGGCACGTGGCTCG
TGTGCCACGTGTGCAT
AAGTACACGTGGGGTG
CTGGGCACGTGCTTGT

Relative binding free energy, 0.5 kcal/mol:
GAATTCACGTGTTCGG

Relative binding free energy, 0.01 kcal/mol:
TATGGCACGTGACGTT
AGATGCACGTGTTTTT
CTTGTCACGTGTCAGT
TAGTGCACGTGAGGAA
TCTTCCACGTGTTTGT
GGAGGCACGTGTGGCG
GTGACCACGTGTAGTT
TTTTGCACGTGACGGT
GTAGTCACGTGCTTGG

Relative binding free energy, 0.19 kcal/mol:
GCGGTCACGTGGTCTA
CGTTACACGTGATGAG
CGGGTCACGTGTGGTG
ATGATCACGTGATATT
GGAATCACGTGGTGGC
GGCCACACGTGTGGTT

Relative binding free energy, 0.15 kcal/mol:
TCTCTCACGTGGTGGG
TGTAACACGTGAAGAT
GTATACACGTGTTTCT
ATTTTCACGTGGGTGG

Relative binding free energy, 0.03 kcal/mol:
GTATACACGTGGTTCG
TGGGGCACGTGATCGG
AAAGACACGTGTAGGG
CATGGCACGTGTGTTT
AGTAACACGTGATTGT

Relative binding free energy, 0.33 kcal/mol:
TGGTTCACGTGACGTA
AACCTCACGTGTGGGT
CCGTTCACGTGTGGAT
ATGGTCACGTGAACTG

Relative binding free energy, -0.04 kcal/mol:
TATTACACGTGGGTGT
GTTGGCACGTGTAGGC
TTTTGCACGTGGTGGG
GTGACCACGTGGAGGG
TGGGCCACGTGGCTGG
TTACGCACGTGATGGA

Relative binding free energy, -0.19 kcal/mol:
TTTGACACGTGGCGTA
GTGGGCACGTGGGGCG
GTGAGCACGTGGGTGT

Relative binding free energy, -0.03 kcal/mol:
TGGTGCACGTGTGTAC
AATTGCACGTGGCGTG
TTTGACACGTGGCTGG
AATTACACGTGGGTAG
TATGACACGTGTTTAA
TGCGTCACGTGGGTGG
ATGGGCACGTGTGCTG
ATCGGCACGTGGATAT

Relative binding free energy, 0.37 kcal/mol:
AGATTCACGTGTGCGC

Relative binding free energy, 0.43 kcal/mol:
TGGTTCACGTGAAGGT

Relative binding free energy, 0.3 kcal/mol:
GTTCTCACGTGGTGAG

Relative binding free energy, 0.29 kcal/mol:
GGGGTCACGTGTTGGA
GTCTTCACGTGATGAG

Relative binding free energy, 0.08 kcal/mol:
TGTATCACGTGTTTGA
TGTCGCACGTGCAGGC
ATTGACACGTGATGTT
ATGATCACGTGGCAGG

Relative binding free energy, -0.26 kcal/mol:
GCGGGCACGTGGGCCG

Relative binding free energy, -0.1 kcal/mol:
TTCTGCACGTGTTAAT
TTTACCACGTGTTTAT

Relative binding free energy, 0.36 kcal/mol:
CGTTACACGTGAATTT
ATTGGCACGTGAGATC
GGTATCACGTGTAATG

Relative binding free energy, 0.24 kcal/mol:
GGTCTCACGTGTGTTA
ACGTTCACGTGGCGGT

Relative binding free energy, 0.09 kcal/mol:
AGGGTCACGTGGTGGT
ACTGTCACGTGATAGG
GTGTACACGTGTTATT
GGGGACACGTGTGAAG

Relative binding free energy, 0.32 kcal/mol:
GTTTGCACGTGAGTCG
GGCGTCACGTGATTGA
GTCTTCACGTGAGTTA

Relative binding free energy, 0.06 kcal/mol:
AGGGGCACGTGGAATT

Relative binding free energy, 0.17 kcal/mol:
AGGTACACGTGAGGCG
GGGGTCACGTGTGTTC
GTTTGCACGTGTAACT
TCCGGCACGTGGTAAT
